Reference: PubChem BioAssay (NCATS)
Inconclusive results, whose numbers are uncertain, are shown with a selection of clear calls. For some assays here: Where the call is inconclusive, the potency comes from a doubtful curve fit. Active and inactive are the calls of the source. Unless noted, calls follow the shape of the dose curve; as a rule, active = well fitted curve in the direction sought with a large enough effect; inconclusive = small, poorly fitted or top-dose-only effect, or another doubt; inactive = no such curve, though single readings can be large; an effect the other way counts as inactive or inconclusive.

Legend:
[1] = P-glycoprotein substrates identified in KB-8-5-11 adenocarcinoma cell line, qHTS therapeutic library screen (AID 1346987); also: nearly all actives have a fitted effect of over 65% in size; also: potency is read from the fitted curve at half-maximal effect
How it was run: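 KB-8-5-11: colchicine-selected sub-line of KB-3-1 over-expressing P-gp; assay medium lacked colchicine. 72 h drug exposure at 37 degree C, CellTiter-Glo.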

[2] = P-glycoprotein substrates identified in KB-3-1 adenocarcinoma cell line, qHTS therapeutic library screen (AID 1346986); also: nearly all actives have a fitted effect of over 60% in size
How it was run: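 Compounds were tested in dose-response against KB-3-1 and KB-8-5-11 cells at 37 degree C for 72 h, and viability was measured by luminescence. AC50 values came from curve fitting with class-based activity calls.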

[3] = qHTS assay to identify small molecule inhibitors of chordoma cells - UCH-2 (AID 1259356); also: potency is read from the fitted curve at half-maximal effect
[4] = Natriuretic polypeptide receptor (hNpr1) antagonism - Pilot counterscreen GloSensor control cell line (AID 1347045; calls by dose curve; also: potency is read from the fitted curve at half-maximal effect)
How it was run: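 HEK293 cells carrying the GloSensor cGMP sensor (GIP/pGS-40F) were loaded with 2% GloSensor reagent for 2 h, exposed to compounds for 30 min, and then stimulated with 50 uM sodium nitroprusside for 20 min at room temperature.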

[5] = molecular target: Atrial natriuretic peptide receptor 1 (Homo sapiens) (UniProt P16066); assay: Natriuretic polypeptide receptor (hNpr1) antagonism - Pilot screen (AID 1347049; calls by dose curve;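 also: agonist-evoked cGMP luminescence read 20 min after hNppA addition; potency is read from the fitted curve at half-maximal effect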)
How it was run: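 HEK293 cells expressing hNpr1 and GloSensor cGMP luciferase, 1500/well, loaded with 2% GloSensor reagent 2 h, compound 30 min at room temperature; luminescence read before and 20 min after 0.1 nM hNppA stimulation.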

[6] = NS1 protein of Zika virus - qHTS assay to identify small molecule inhibitors in human HEK 293 cells (AID 1347053); also: potency is read from the fitted curve at half-maximal effect; nearly all actives have a fitted effect of over 55% in size
How it was run: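 Following 20 h seeding, HEK 293 cells took compound, then 1 h later ZIKV MR766 (MOI = 0.5). Incubation ran 24 h at 37 C before TR-FRET detection of NS1; a drop in signal indicates inhibition.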

[7] = molecular target: Atrial natriuretic peptide receptor 2 (Homo sapiens) (UniProt P20594); assay: Natriuretic polypeptide receptor (hNpr2) antagonism - Pilot subtype selectivity assay (AID 1347050; calls by dose curve; also: potency is read from the fitted curve at half-maximal effect)
How it was run: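 HEK293 cells expressing hNpr2 and a GloSensor cGMP luciferase sensor, 1500/well, preloaded 2 h with 2% GloSensor reagent, compound 30 min, then 1 nM hNppC for 20 min. Antagonism from luminescence after versus baseline pre-read; LOPAC in 1:5 titrations.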
Tags tell the direction and shape of the fitted curve.

Sequence of UniProt P16066 (P16066 whole entry, looked up): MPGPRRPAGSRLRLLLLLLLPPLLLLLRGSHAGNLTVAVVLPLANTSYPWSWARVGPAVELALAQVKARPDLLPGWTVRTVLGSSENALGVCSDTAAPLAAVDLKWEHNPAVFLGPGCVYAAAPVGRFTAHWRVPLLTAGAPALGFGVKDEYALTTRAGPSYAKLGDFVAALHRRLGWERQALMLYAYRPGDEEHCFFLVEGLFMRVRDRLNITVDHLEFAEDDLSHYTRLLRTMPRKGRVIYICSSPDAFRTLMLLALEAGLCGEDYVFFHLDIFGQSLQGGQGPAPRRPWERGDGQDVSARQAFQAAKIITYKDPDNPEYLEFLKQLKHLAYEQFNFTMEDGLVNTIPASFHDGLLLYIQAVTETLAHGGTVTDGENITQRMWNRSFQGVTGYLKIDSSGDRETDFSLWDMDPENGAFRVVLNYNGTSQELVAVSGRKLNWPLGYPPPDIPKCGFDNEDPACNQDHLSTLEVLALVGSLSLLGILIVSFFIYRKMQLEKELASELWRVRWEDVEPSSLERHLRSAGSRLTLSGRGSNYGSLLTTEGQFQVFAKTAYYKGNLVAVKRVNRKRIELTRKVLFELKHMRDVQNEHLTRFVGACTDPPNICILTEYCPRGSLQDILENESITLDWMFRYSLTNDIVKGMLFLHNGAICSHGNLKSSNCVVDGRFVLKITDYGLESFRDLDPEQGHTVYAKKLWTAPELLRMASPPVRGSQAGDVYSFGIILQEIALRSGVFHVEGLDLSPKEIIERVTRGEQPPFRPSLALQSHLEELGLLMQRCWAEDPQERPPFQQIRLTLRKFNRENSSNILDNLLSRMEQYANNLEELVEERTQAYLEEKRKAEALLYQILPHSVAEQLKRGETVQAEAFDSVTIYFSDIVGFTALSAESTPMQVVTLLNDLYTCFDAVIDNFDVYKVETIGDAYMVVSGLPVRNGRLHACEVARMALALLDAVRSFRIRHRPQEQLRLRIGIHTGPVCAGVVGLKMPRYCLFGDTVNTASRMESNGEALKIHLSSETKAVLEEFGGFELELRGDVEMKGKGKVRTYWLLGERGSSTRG
Sequence of UniProt P20594 (P20594 whole entry, looked up): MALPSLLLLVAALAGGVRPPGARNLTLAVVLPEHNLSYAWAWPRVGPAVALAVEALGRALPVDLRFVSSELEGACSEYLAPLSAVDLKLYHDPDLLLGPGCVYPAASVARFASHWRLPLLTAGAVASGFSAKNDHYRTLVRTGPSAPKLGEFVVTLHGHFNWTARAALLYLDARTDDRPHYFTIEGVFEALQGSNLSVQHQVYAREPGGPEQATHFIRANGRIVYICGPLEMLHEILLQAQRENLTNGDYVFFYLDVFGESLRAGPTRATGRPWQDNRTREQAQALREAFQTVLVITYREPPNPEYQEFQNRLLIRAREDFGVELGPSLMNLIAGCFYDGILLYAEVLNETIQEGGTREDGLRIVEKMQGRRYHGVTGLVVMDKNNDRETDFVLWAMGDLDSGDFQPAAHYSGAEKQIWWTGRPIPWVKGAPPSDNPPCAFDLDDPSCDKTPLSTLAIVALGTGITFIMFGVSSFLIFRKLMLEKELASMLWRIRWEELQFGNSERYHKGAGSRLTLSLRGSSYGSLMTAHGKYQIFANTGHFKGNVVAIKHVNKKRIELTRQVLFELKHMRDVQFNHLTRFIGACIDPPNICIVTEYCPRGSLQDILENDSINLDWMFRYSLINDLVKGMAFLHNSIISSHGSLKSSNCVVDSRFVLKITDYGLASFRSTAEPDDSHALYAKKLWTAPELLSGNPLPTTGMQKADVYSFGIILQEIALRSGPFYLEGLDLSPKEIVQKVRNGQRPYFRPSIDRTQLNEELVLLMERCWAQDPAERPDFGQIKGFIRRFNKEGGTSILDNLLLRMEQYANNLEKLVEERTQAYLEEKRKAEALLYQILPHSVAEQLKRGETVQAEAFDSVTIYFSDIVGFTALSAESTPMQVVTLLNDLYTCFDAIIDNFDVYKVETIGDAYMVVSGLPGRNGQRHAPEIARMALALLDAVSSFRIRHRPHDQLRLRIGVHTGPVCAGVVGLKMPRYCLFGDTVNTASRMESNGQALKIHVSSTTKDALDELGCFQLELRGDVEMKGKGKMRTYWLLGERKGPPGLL

In the case of Fc1cc(F)c2c(c1)C1C=CCC1C(c1cccnc1)N2 (stereo not drawn), the Potency [1] is reported as active: 4.61 µM.
For C[C@H](NC(=O)Cc1cc(F)cc(F)c1)C(=O)N[C@@H]1N=C(c2ccccc2)c2ccccc2N(C)C1=O, the Potency [1] was inconclusive: 13 µM [inhibitor, partial curve, poor fit].
In the case of O=C(NCCN1CCC2(CC1)C(=O)NCN2c1cccc(F)c1)c1ccc(F)c(F)c1, the Potency [1] is reported as active: 16.4 µM.
In the case of O=C(O)C(Cl)Cl, the Potency [2] is reported as “inactive”.
In the case of C[C@H]1CCC[C@H](O)CCC/C=C/c2cc(O)cc(O)c2C(=O)O1, the Potency [1] is reported as inconclusive: 18.4 µM [inhibitor, single point].
With c1ccc2c(c1)OCC(C1=NCCN1)O2 (stereo not drawn) the Potency [3] was inconclusive: 11.6 µM [cytotoxic, full curve], the Potency [4] was inconclusive: 13.1 µM [inhibitor, partial curve] and the Potency [5] was inconclusive: 10.7 µM [inhibitor, partial curve]. The Potency [6] was inconclusive: 35.5 µM [inhibitor, single point].
With O=c1oc2ccccc2c(O)c1Cc1c(O)c2ccccc2oc1=O the Potency [1] was inconclusive: 7.85 µM [inhibitor, single point].
With CC[C@H]1C[C@H]2[C@@H]3CCC4=CC(=O)CC[C@@H]4[C@H]3CC[C@]2(C)[C@H]1O the Potency [1] was inconclusive: 16.4 µM [inhibitor, single point].
In the case of CC1=CC2OC3[C@H](O)C[C@@](C)([C@]34CO4)[C@@]2(CO)[C@H](O)C1=O (stereo partly drawn), the Potency [1] is reported as active: 1.46 µM.
With CN1C2CCC1CC(OC(c1ccccc1)c1ccc(Cl)cc1)C2 (stereo not drawn) the Potency [1] was inconclusive: 16.4 µM [inhibitor, single point].
In the case of C=C(C)[C@@H]1[C@H]2OC(=O)[C@H]1[C@]1(O)C[C@H]3O[C@]34C(=O)O[C@H]2[C@]14C, the Potency [2] is reported as “inactive”.
For CCC1=CC2CN3CCc4c([nH]c5ccccc45)[C@@](C(=O)OC)(C2)[C@@H]13, the Potency [1] was inconclusive: 0.0453 µM [inhibitor, full curve, poor fit].
For C[C@H]1O[C@@H](n2cnc3c(N)ncnc32)C[C@@H]1O, the Potency [1] was “inactive”.
In the case of COc1ccc2c(C(=O)c3ccc(Cl)cc3)c(C)n(CC(=O)O)c2c1, the Potency [2] is reported as “inactive”.
In the case of O=c1c2ccccc2[se]n1-c1ccccc1, the Potency [4] is reported as inconclusive: 29.3 µM [inhibitor, single point], the Potency [5] is reported as inconclusive: 6.75 µM [inhibitor, full curve] and the Potency [7] is reported as inconclusive: 26.1 µM [inhibitor, single point].
For C/C=C(/C)C(=O)O[C@H]1C(C)=C2[C@H]([C@@H]1OC(=O)CCCCCCC)[C@@](C)(OC(C)=O)C[C@H](OC(=O)CCC)[C@@]1(O)[C@H]2OC(=O)[C@@]1(C)O, the Potency [4] was inconclusive: 26.1 µM [inhibitor, single point], the Potency [5] was inconclusive: 0.953 µM [inhibitor, full curve, poor fit] and the Potency [7] was inconclusive: 26.1 µM [inhibitor, single point].
